Results reported in the supplement of paper PMC12015411.
Bacterial growth in Mueller-Hinton broth at 37 °C with the drug at the dose given, alone or with nitroxoline. Checkerboards on E. coli BW25113: OD600 at the end of exponential growth as a fraction of no-drug wells. Colistin series: OD595 at 10.75 h as a fraction of the colistin-free well. 1 = full growth, lower = more inhibition. No active / inactive call per well. Checkerboard doses stop near each drug's IC75, and their values pile up at 1, as if capped there. Colistin and gentamicin are mixtures; one drawing stands for each.

What was measured:
Experiment in all cases: growth relative to the colistin-free well (fraction of colistin-free control); nitroxoline concentration 0.75 µg/ml; higher = more growth, less inhibition
[1] = system: Escherichia coli J53 pTOPO
Description: (§1)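 Two-fold colistin steps (0.25-16 µg/ml) in cation-adjusted Mueller-Hinton broth at 37 °C; OD595 at 10.75 h as a fraction of the colistin-free well with the same nitroxoline dose, four biological replicates.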

[2] = system: Escherichia coli J53 pKP2442_mcr-1
Description: as §1

[3] = system: Klebsiella pneumoniae PRZ pKP2442_mcr-1
Description: as §1

[4] = system: Escherichia coli BW25113
Description: as §1

[5] = system: Klebsiella pneumoniae PRZ pTOPO
Description: as §1

[6] = system: Klebsiella pneumoniae PRZ
Description: as §1

[7] = system: Klebsiella pneumoniae CT-S
Description: as §1

[8] = system: Escherichia coli MG1655
Description: as §1

[9] = system: Escherichia coli J53 pTOPO_mcr-1
Description: as §1

[10] = system: Escherichia coli MG1655 pmrA (G53E)
Description: as §1

[11] = system: Klebsiella pneumoniae LS107
Description: as §1

[12] = system: Escherichia coli J53
Description: as §1

[13] = system: Klebsiella pneumoniae PRZ pTOPO_mcr-1
Description: as §1

[14] = system: Klebsiella pneumoniae CT-R3 pmrB (P95L)
Description: as §1

[15] = system: Klebsiella pneumoniae 2442 mcr-1
Description: as §1

[16] = system: Klebsiella pneumoniae LS53 mgrB (IS1R)
Description: as §1

[17] = system: Escherichia coli MG1655 pmrB (V88E)
Description: as §1

CCC(C)CCCC(=O)N[C@@H](CCN)C(=O)N[C@H](C(=O)N[C@@H](CCN)C(=O)N[C@H]1CCNC(=O)[C@H]([C@@H](C)O)NC(=O)[C@H](CCN)NC(=O)[C@H](CCN)NC(=O)[C@H](CC(C)C)NC(=O)[C@@H](CC(C)C)NC(=O)[C@H](CCN)NC1=O)[C@@H](C)O (some centres undefined) [colistin] + Oc1ccc([N+](=O)[O-])c2cccnc12 [nitroxoline]
growth
Conditions | 0.25 µg/ml | 0.5 µg/ml | 1 µg/ml | 2 µg/ml | 4 µg/ml | 8 µg/ml | 16 µg/ml
[1] | 0.895 | 0.644 | 0 | 0.00895 | 0.0148 | 0.0131 | 0.0253
[2] | 0.8923 | 0.747 | 0.556 | 0.0469 | 0.0486 | 0.0304 | 0.0243
[3] | 0.875 | 0.916 | 0.855 | 0.91 | 0.839 | 0.343 | 0.0558
[4] | 0.921 | 0.813 | 0.00803 | 0.0103 | 0.0137 | 0.0125 | 0.0155
[5] | 1 | 0.949 | 0 | 0 | 0 | 0 | 0
[6] | 0.906 | 0.744 | 0.0107 | 0.00707 | 0.00492 | 0.0129 | 0.00985
[7] | 0.9311 | 0.729 | 0.00168 | 0.00847 | 0.00568 | 0.00741 | 0.0191
[8] | 0.803 | 0.755 | 0.0206 | 0.0283 | 0.0274 | 0.0301 | 0.0321
[9] | 0.859 | 0.68407 | 0.00636 | 0.00628 | 0.00359 | 0.0176 | 0.00919
[10] | 0.92 | 0.908 | 0.872 | 0.753 | 0.491 | 0.224 | 0.0192
[11] | 0.954 | 0.672 | 0.0135 | 0.0127 | 0.0179 | 0.0235 | 0.0164
[12] | 0.78 | 0.309 | 0.0104 | 0.0123 | 0.0273 | 0.0161 | 0.0321
[13] | 1 | 0.987 | 0.9557 | 0.0584 | 0.00315 | 0 | 0
[14] | 0.892 | 0.901 | 0.86232 | 0.816 | 0.683 | 0.59 | 0.387
[15] | 0.877 | 0.827 | 0.772 | 0.593 | 0.234 | 0.0844 | 0.0437
[16] | 0.9593 | 0.886 | 0.75 | 0.789 | 0.475 | 0.251 | 0.224
[17] | 0.996 | 0.945 | 0.867 | 0.799 | 0.521 | 0.356 | 0.0679
